{"source": "paper PMC4336329", "about": "(PLoS ONE, 2015)", "note": "The campaign covered roughly 310,000 compounds. About 14,000 (4.5%) showed an effect of 50% or more. Effects have a minus sign here. Some of the results follow.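 Further: peak tail current of the secondary pulse compared with the same well before compound.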"}
{"target": "human ether-à-go-go-related gene (hERG) potassium channel (human, UniProt Q12809)", "sequence (Q12809 whole entry, looked up)": "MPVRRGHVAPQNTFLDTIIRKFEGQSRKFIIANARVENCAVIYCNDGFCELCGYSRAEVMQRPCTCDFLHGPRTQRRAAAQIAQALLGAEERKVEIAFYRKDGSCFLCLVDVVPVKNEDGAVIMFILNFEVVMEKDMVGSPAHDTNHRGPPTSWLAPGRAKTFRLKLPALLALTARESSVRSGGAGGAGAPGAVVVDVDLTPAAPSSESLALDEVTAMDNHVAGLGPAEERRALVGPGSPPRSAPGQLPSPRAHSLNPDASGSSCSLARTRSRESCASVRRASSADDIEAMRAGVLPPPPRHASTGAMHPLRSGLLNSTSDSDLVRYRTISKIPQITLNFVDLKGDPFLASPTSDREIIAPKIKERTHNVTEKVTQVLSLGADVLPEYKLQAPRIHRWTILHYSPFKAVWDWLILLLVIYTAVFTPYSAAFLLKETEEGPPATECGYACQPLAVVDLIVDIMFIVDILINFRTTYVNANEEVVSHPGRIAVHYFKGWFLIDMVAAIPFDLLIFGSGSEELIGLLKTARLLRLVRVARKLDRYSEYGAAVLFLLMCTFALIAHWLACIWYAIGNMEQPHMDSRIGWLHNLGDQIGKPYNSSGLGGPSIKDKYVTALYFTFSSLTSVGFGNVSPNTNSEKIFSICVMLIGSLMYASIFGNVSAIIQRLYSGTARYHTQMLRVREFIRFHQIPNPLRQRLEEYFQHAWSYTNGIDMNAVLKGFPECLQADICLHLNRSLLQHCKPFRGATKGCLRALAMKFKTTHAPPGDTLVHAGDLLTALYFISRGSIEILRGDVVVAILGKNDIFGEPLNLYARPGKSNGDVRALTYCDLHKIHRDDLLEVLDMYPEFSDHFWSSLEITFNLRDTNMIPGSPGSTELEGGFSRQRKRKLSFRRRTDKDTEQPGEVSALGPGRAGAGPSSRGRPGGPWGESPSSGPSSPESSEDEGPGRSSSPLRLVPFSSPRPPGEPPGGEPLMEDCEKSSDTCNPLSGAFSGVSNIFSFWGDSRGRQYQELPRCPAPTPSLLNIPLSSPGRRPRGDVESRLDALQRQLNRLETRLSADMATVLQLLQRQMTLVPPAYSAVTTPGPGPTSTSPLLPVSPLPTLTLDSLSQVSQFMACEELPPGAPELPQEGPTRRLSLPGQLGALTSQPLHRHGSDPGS", "test": "primary screen, population patch clamp on CHO cells stably expressing hERG", "units": {"hERG current change (%, negative = inhibition) at 10uM": "%"}}
{"smiles": "O=C(OCc1nnc(-c2ccc(Br)cc2)o1)c1ccco1", "hERG current change (%, negative = inhibition) at 10uM": -27.6}
{"smiles": "O=C(Nc1ccn(Cc2ccc(Cl)cc2)n1)c1ccc2c(c1)OCO2", "hERG current change (%, negative = inhibition) at 10uM": -5.17}
{"smiles": "COc1ccc(S(=O)(=O)N2CCCCCC2)cc1N(C)S(=O)(=O)c1ccc(Cl)cc1", "hERG current change (%, negative = inhibition) at 10uM": 4.46}
{"smiles": "Cc1cc(C)nc(NS(=O)(=O)c2ccc(NC(=O)c3ccc4c(c3)OCO4)cc2)n1", "hERG current change (%, negative = inhibition) at 10uM": -0.197}
{"smiles": "O=C1c2ccccc2C(=O)N1CCCc1nc2ccccc2c(=O)n1CCCn1ccnc1", "hERG current change (%, negative = inhibition) at 10uM": -65}
{"smiles": "COc1cccc(OC)c1C(=O)N1CCOCC1", "hERG current change (%, negative = inhibition) at 10uM": 7.81}
{"smiles": "CC(=O)Nc1sc2c(c1C(c1ccc(F)cc1)N1CCOCC1)CCCC2", "note": "(centres unmarked)", "hERG current change (%, negative = inhibition) at 10uM": -14.8}
{"smiles": "N#CC1=C(S)N(c2ccccc2)C(c2ccc(-c3cccc(Cl)c3)o2)NC1=O", "note": "(centres unmarked)", "hERG current change (%, negative = inhibition) at 10uM": 12.7}
{"smiles": "COc1ccc(NC(=O)CCCCCN2C(=O)c3cccc([N+](=O)[O-])c3C2=O)c(OC)c1", "hERG current change (%, negative = inhibition) at 10uM": 2.2}
{"smiles": "Cc1c(C)n(CC(O)CNc2ccccc2)c2ccccc12.O=C(O)C(=O)O", "note": "(centres unmarked)", "hERG current change (%, negative = inhibition) at 10uM": 23.1}
{"smiles": "Cc1cc(=O)oc2c(C)c(OCC(=O)N3CCN(c4cccc(Cl)c4)CC3)ccc12", "hERG current change (%, negative = inhibition) at 10uM": -34.2}
{"smiles": "N#CC1=C(N)OC2=C(C(=O)CCC2)C1c1ccsc1", "note": "(centres unmarked)", "hERG current change (%, negative = inhibition) at 10uM": -6.32}
{"smiles": "COc1ccc(CNC(=O)Cc2c(C(=O)O)[nH]c3ccccc23)c(OC)c1", "hERG current change (%, negative = inhibition) at 10uM": 22.4}
{"smiles": "Cc1nnc(NC(=O)c2ccc(F)c(S(=O)(=O)N3CCCCC3)c2)s1", "hERG current change (%, negative = inhibition) at 10uM": 7.2}
{"smiles": "CC(=O)NC(=S)NNC(=O)C(c1ccccc1)c1ccccc1", "hERG current change (%, negative = inhibition) at 10uM": 28.8}
{"smiles": "CC(C)C[C@H](NC(=O)OC(C)(C)C)C(=O)NCC1CCC(C(=O)N[C@@H](Cc2ccccc2)C(=O)O)CC1", "note": "(some centres unmarked)", "hERG current change (%, negative = inhibition) at 10uM": 14.4}
{"smiles": "CCOC(=O)n1c(=O)n(Cc2c(Cl)cccc2Cl)c2ccccc21", "hERG current change (%, negative = inhibition) at 10uM": 0.418}
{"smiles": "CCN(CC)CCCNC(=O)CSc1nc(C)cc(C)n1", "hERG current change (%, negative = inhibition) at 10uM": 9.14}
{"smiles": "Cc1cc(OCCN2CCOCC2)nc2ccccc12.Cl", "hERG current change (%, negative = inhibition) at 10uM": 7.2}
{"smiles": "CCOC(=O)C1=C(c2ccccc2)Nc2ncnn2C1c1cccc(O)c1", "note": "(centres unmarked)", "hERG current change (%, negative = inhibition) at 10uM": 9.16}
{"smiles": "COc1cccc(-c2nc(CS(=O)(=O)CC(=O)N3CCN(C)CC3)c(C)o2)c1", "hERG current change (%, negative = inhibition) at 10uM": 8.02}
{"smiles": "CCC(c1nnc(SCC(=O)Nc2cccnc2Cl)n1-c1ccccc1)N(C)C", "note": "(centres unmarked)", "hERG current change (%, negative = inhibition) at 10uM": 12}
{"smiles": "COc1ccc(-c2nc(CS(=O)CC(=O)NC3CCCC3)c(C)o2)cc1", "note": "(centres unmarked)", "hERG current change (%, negative = inhibition) at 10uM": -16.4}
